The text below walks through data of PubChem BioAssay AID485344 (National Center for Advancing Translational Sciences (NCATS), 2010).

Screen size: about 340,000 compounds; about 6,900 (2%) were called active. Cut-off read from the data, not from the text of the source: active = inhibition above about 30%; inactive = below that, where a call was filed. The entries are a selection whose mix differs from that of the whole data set. Where no call is shown, the source filed none.

The target of the test is D(2) dopamine receptor (Homo sapiens) (UniProt P14416). Nature of the test: HTS Assay for Allosteric Antagonists of the Human D2 Dopamine Receptor: Primary Screen for Antagonists. Note: 0% is about no effect. The conditions noted are these: HEK293 TREx D2 cells, calcium flux, dopamine EC80; at 10 µM; stronger effect = higher value. Put shortly: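 In this primary screen, negative modulation is detected by tracking calcium flux after an EC80 dopamine challenge in inducible HEK293 T-REx D2 cells preexposed to test compound for 180 s.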
UniProt P14416, sequence (P14416 whole entry, looked up): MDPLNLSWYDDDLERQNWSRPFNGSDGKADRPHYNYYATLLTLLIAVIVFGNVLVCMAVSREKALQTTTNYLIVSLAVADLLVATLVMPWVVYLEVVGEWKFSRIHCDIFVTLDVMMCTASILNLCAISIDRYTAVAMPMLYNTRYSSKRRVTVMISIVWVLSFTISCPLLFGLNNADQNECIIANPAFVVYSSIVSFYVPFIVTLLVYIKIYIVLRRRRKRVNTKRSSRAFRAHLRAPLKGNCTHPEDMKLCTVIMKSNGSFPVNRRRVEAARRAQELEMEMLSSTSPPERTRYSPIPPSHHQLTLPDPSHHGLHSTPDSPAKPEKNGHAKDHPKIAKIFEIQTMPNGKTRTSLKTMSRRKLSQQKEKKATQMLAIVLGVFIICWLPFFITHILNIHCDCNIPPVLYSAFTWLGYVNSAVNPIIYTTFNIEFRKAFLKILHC
One may read the inhibition as the relative decrease from the control value, in per cent. For `C=Cc1ccc(CSc2nnc(C)n3c2cc2occc23)cc1`, the inhibition was found to be 8.1%.
The result for `Cc1c(C(=O)Nc2ccc(F)c(F)c2)oc2ccc(S(=O)(=O)N(C)C3CCCCC3)cc12` reads 3.82%.
For `CCOC(=O)c1ccc(NC(=O)C(C)N(c2ccc(OCC)cc2)S(C)(=O)=O)cc1` (stereo unspecified) the value was -2.73%; for `COc1ccc(CNC(=O)c2cc3c(=O)n4cccc(C)c4nc3s2)cc1`, 5.33%.
The result for `O=C(Nc1cc2ccc(O)cc2oc1=O)c1ccc(F)cc1` reads 10.3%; that for `CCOC(=O)c1[nH]c(C)c(CCC(=O)NC(C)c2ccccc2)c1C` (stereo unspecified), 15.1%.
On to `Cc1cccc(CNC(=O)Cc2ccc(NC(=O)N3CCCCc4ccccc43)cc2)c1`, for which the inhibition stood at 8.5%.
As to `CCOc1ccc(-c2cn3c(n2)sc2cc(C(=O)NCCCN(CC)CC)ccc23)cc1`, the inhibition was determined as 10.2%.
Regarding `COc1ccc(CCNC(=O)CCCCn2c(=O)c3ccccc3n(Cc3ccc(Cl)cc3)c2=O)cc1OC`, the inhibition was -9.44%.
For `Cc1ccc(N(C)C(=O)Cn2cc(S(=O)(=O)N3CCCC3)c(S(=O)(=O)N3CCCC3)c2)cc1` the value was 7.71%; for `CCOC(=O)c1cc(-c2ccccc2)n(CCC(=O)Nc2ccc(C)cc2Cl)c1C`, -18.7%; for `COc1ccc(OC)c(S(=O)(=O)N2Cc3ccccc3CC2C(=O)Nc2ccc(Cl)cc2)c1` (stereo unspecified), 25%.
For `Cc1ccc2c(c1)C(=O)C(=O)N2Cc1ccc(OC(C)C)cc1` the value was -0.08%; for `CCOc1ccc(-c2nn(-c3ccccc3)cc2C2NC(=O)NC(C)=C2C(=O)OC(C)C)cc1C` (stereo unspecified), -17.2%.
For `Cc1ccc(-n2nc(CO)c(C(=O)NCCCCc3ccccc3)n2)cc1` the value was 19.2%; for `Cc1ccc(C(=O)N2CCC(N3CCN(Cc4ccc(F)cc4)C(=O)C3=O)CC2)cc1`, 7.24%; for `O=C1C(c2ccc(F)cc2)N(Cc2ccccc2Cl)C(=O)CN1C1CCCCC1` (stereo unspecified), 11.9%.
Regarding `Cc1ccc2c(c1)CC(C)N2S(=O)(=O)c1nnc(NC(=O)c2ccccc2F)s1` (stereo unspecified), the inhibition came to 28.1%.
On to `O=C(C1COc2ccccc2O1)N1CCCCC1` (stereo unspecified), for which the inhibition is active: 51.3%.
The result for `CCOc1ccc(CNC(=O)c2[nH]c3ccccc3c2Sc2ccc(C)cc2)cc1` reads 2.07%; that for `Cc1ccc(NC(=O)CCS(=O)(=O)c2ccc(Br)cc2)c(C)c1`, 14.4%.
The result for `Cc1ccc(S(=O)(=O)CCC(=O)OCC(=O)N2c3ccccc3NC(=O)C2(C)C)cc1` reads active: 89.9%.
For `COC(=O)c1ccc2c(c1)N(CC(=O)Nc1cccc(C(F)(F)F)c1)C(=O)c1ccccc1S2`, the inhibition was -3.36%.
For `COc1ccc(NC(=O)C2CCCN(S(=O)(=O)c3ccc4c(c3)CCCN4C(C)=O)C2)cc1` (stereo unspecified) the value was -4.58%.
The result for `O=C(CN(CCc1ccccc1)S(=O)(=O)c1ccccc1)NCc1ccc(Cl)cc1` reads 4.84%; that for `COc1cc(CNc2ccc3c(c2)ncn3C(C)C)cc(OC)c1OC`, -0.837%.
